# Results reported in the supplement of paper PMC4166925.
# ± gives the standard deviation of the averaged measurements. Over roughly 33,000 sequences, “E-score (dimensionless, -0.5 to 0.5)” has its median near -0.049; the highest 2% begin near 0.37. The list shows a part of the results.
# Test system: T1, PmTbr T-box DNA-binding domain (GST fusion)
# T1 sequence: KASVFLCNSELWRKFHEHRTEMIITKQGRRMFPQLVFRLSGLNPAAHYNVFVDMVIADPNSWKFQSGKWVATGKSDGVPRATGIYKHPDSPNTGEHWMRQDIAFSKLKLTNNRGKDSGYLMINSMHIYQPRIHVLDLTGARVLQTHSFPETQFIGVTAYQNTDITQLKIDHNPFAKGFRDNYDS
# Experiment: PBM E-score of 8-mer (E-score (dimensionless, -0.5 to 0.5)); Tbr is Tbrain of the sea star Patiria miniata (Pm) or the sea urchin Strongylocentrotus purpuratus (Sp); higher = stronger binding preference; most listed sequences are background and not binding sites
# Details: the construct has about 5 more residues each side
# Method in brief: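 Each ungapped 8-mer received an enrichment E-score from the Universal PBM Analysis Suite, averaged over duplicate arrays. The proteins were Tbr T-box DNA-binding domains, covering the whole T-box plus about five flanking residues, fused to GST and expressed in BL21 E. coli at 20 °C before glutathione affinity purification. Universal Agilent oligonucleotide arrays were made double-stranded by primer extension and incubated with 200 nM protein in PBS (pH 7.5). The arrays were then scanned and quantified, and every 8-mer was scored from probe intensities.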
row,Sequence,PBM E-score of 8-mer
1,TACAGGCA,0.0516 ± 0.028
2,CGTGTTAC,0.349 ± 0.015
3,AGGGCATA,-0.149 ± 0.025
4,AGATCATG,-0.15 ± 0.0075
5,ACGCCGGG,-0.0787 ± 0.081
6,ACCCAGCT,-0.119 ± 0.046
7,GACGTAGA,-0.0828 ± 0.053
8,CAATGTAG,-0.0135 ± 0.03
9,AGGTCACC,0.111 ± 0.041
10,AGCCAGAG,-0.0902 ± 0.046
11,AATAATAC,-0.0559 ± 0.084
12,CCTGTCTC,0.0494 ± 0.052
13,AAGTGCAC,-0.0994 ± 0.032
14,ACACGCTA,0.128 ± 0.027
15,GCGACTTA,0.158 ± 0.044
16,CTCCGTAC,-0.168 ± 0.014
17,CGATAAAG,0.175 ± 0.079
18,AGTCATGA,-0.0772 ± 0.02
19,TGCCTTAA,-0.0679 ± 0.022
20,CTACTACC,-0.143 ± 0.066
21,ACACGTAA,0.175 ± 0.0069
22,GGTTAAAA,-0.0875 ± 0.036
23,AACCCGCC,-0.08 ± 0.0019
24,GTGATGTA,0.115 ± 0.033
25,GGGAGACC,-0.188 ± 0.068

row,Sequence,PBM E-score of 8-mer
1,GTACAGAA,-0.119 ± 0.061
2,CTCACGCC,0.3929 ± 0.00041
3,CACACTGA,0.2581 ± 0.00048
4,GTCGCCCA,0.192 ± 0.015
5,ATATAGGG,-0.119 ± 0.031
6,CTTGTCAC,0.405 ± 0.015
7,CGTGGGTA,-0.0403 ± 0.024
8,AGATGTGG,0.0433 ± 0.038
9,AGCATGAC,-0.0334 ± 0.014
10,CTGAGTCC,-0.154 ± 0.032
11,GCAAGTAC,0.0735 ± 0.073
12,AATCGATC,-0.0502 ± 0.086
13,GAAAGGGC,-0.0791 ± 0.011
14,AAGACAAG,-0.0534 ± 0.077
15,TTCTCCAA,-0.14 ± 0.013
16,GCAAGGCC,-0.145 ± 0.002
17,CGCTAACG,0.3714 ± 0.0037
18,CCTAAACA,-0.0519 ± 0.0048
19,ATATCCAA,-0.0364 ± 0.021
20,AATTGTTC,-0.0266 ± 0.035
21,TAGTCTAA,-0.181 ± 0.032
22,CCGAGCGC,0.0142 ± 0.014
23,GAGGTAGC,-0.0935 ± 0.045
24,CGGTCACA,0.218 ± 0.068
25,ACAAAACG,0.0347 ± 0.054

row,Sequence,PBM E-score of 8-mer
1,AATAGTGT,0.213 ± 0.046
2,ACCGGTCC,-0.276 ± 0.048
3,GACTAACA,0.215 ± 0.034
4,CCTCTGTA,0.0451 ± 0.023
5,AGCAGACC,-0.0932 ± 0.025
6,AAGTCGTG,0.173 ± 0.018
7,GGAGGGGA,-0.036 ± 0.063
8,GCCAACAA,0.153 ± 0.026
9,CCAGCAAG,-0.207 ± 0.0072
10,TGCGGTAA,-0.0928 ± 0.031
11,CCTATGCC,-0.146 ± 0.0042
12,CACGGCCA,0.0611 ± 0.028
13,CCGACGAG,0.0868 ± 0.013
14,CGGGGCAG,-0.0761 ± 0.031
15,CTTGAATC,-0.165 ± 0.011
16,CTGGAGGA,-0.00257 ± 0.063
17,GAGAACTA,0.184 ± 0.025
18,CACCCAAG,0.263 ± 0.023
19,TCATAGCA,0.0932 ± 0.011
20,CAAGATCC,-0.0705 ± 0.028
21,TACCCCCA,-0.3648 ± 0.0034
22,AGCCTTAC,-0.307 ± 0.0095
23,CGTGCTGA,0.209 ± 0.024
24,GCCGGGAA,0.0291 ± 0.082
25,AAACGACG,0.00901 ± 0.025

row,Sequence,PBM E-score of 8-mer
1,AACCTAGG,-0.0117 ± 0.074
2,CCGAGGGC,-0.0627 ± 0.08
3,GATCCTGA,-0.144 ± 0.049
4,CAGCATCC,-0.171 ± 0.0059
5,ACTCCTGC,-0.195 ± 0.015
6,AAGCAGAG,-0.286 ± 0.013
7,ACGCGACA,0.334 ± 0.028
8,GCACTTTA,0.291 ± 0.06
9,ATCTCGGG,0.00677 ± 0.023
10,GCAGACCA,-0.28 ± 0.12
11,CATCTTAG,0.0719 ± 0.0036
12,GTTTACCA,0.00923 ± 0.035
13,ATCGATAG,0.0697 ± 0.011
14,ATGCCAAT,0.075 ± 0.04
15,AGCGTCCC,-0.157 ± 0.07
16,GAATAAAC,-0.19 ± 0.041
17,ATCACCTC,0.4197 ± 0.00045
18,GTAGGGGA,-0.198 ± 0.086
19,ACGCGACT,0.0612 ± 0.064
20,GCGTGGTA,-0.0938 ± 0.022
21,ACGAGGAA,-0.2 ± 0.035
22,CCGTCGCA,0.168 ± 0.048
23,CAATACGG,-0.256 ± 0.0027
24,AGCAAGTG,0.266 ± 0.023
25,CATTCGGG,-0.226 ± 0.025

row,Sequence,PBM E-score of 8-mer
1,ATTGGAGG,0.0195 ± 0.049
2,ACTAGCTC,-0.184 ± 0.036
3,CCGTCTCA,0.057 ± 0.034
4,GCGCGTCA,0.287 ± 0.029
5,AATTTATA,-0.123 ± 0.1
6,CATGAAGG,-0.00622 ± 0.018
7,GCATCCAA,-0.145 ± 0.043
8,ATGCGACC,0.0103 ± 0.013
9,CGACTACC,-0.059 ± 0.041
10,CTTGTTAC,0.152 ± 0.044
11,ATGGTTAA,-0.172 ± 0.0082
12,AAGGCCTT,-0.237 ± 0.029
13,AGGGTACG,-0.107 ± 0.06
14,ATCCTAGA,-0.232 ± 0.018
15,ACAGTAGA,-0.14 ± 0.0017
16,CAGTAGGG,-0.0306 ± 0.07
17,ACGTCCCC,-0.17 ± 0.13
18,AGTGTGAC,0.467 ± 0.0075
19,ATAGTCGG,-0.173 ± 0.049
20,GGCGCGGA,0.125 ± 0.075
21,CAGTGCGA,0.386 ± 0.019
22,CCGAAGCC,-0.207 ± 0.013
23,AGCTGATG,-0.055 ± 0.0056
24,CCGGACTC,-0.126 ± 0.04
25,AATTAGTC,-0.166 ± 0.1

row,Sequence,PBM E-score of 8-mer
1,AATCCCCT,0.0001 ± 0.086
2,GCCCAACA,0.0617 ± 0.0082
3,CAGTACAG,-0.142 ± 0.025
4,CAGGCTTC,-0.0243 ± 0.09
5,ACTGGTCA,-0.146 ± 0.046
6,GATTATAA,-0.166 ± 0.075
7,AGCGGTAC,0.0345 ± 0.018
8,AAAGGATA,-0.142 ± 0.028
9,ATTGAGAG,-0.106 ± 0.1
10,AAGGGCAT,0.126 ± 0.021
11,GTCTCAAC,0.00691 ± 0.048
12,AGTCCGAT,-0.145 ± 0.002
13,AATCACAA,0.199 ± 0.0027
14,CGGCTCAC,0.0268 ± 0.047
15,AATGGAAA,-0.292 ± 0.044
16,CCGGGGAA,-0.285 ± 0.03
17,CGCGAGCC,0.107 ± 0.0013
18,GCAGAGAA,-0.238 ± 0.073
19,GCCGGTCC,-0.328 ± 0.049
20,AGCCTCTA,-0.0807 ± 0.013
21,CCCACCCC,0.185 ± 0.041
22,CAGAGTGC,0.0343 ± 0.018
23,AGATATTC,-0.13 ± 0.078
24,AATAAACG,-0.222 ± 0.051
25,ACATCTTG,-0.0271 ± 0.024

row,Sequence,PBM E-score of 8-mer
1,AGGAGCAC,-0.31 ± 0.074
2,CATGTGTA,0.0643 ± 0.034
3,AGGCCAAG,-0.282 ± 0.059
4,AACAGGGA,-0.204 ± 0.0033
5,CGAATGCA,-0.0425 ± 0.044
6,ACTTGCTG,0.0128 ± 0.01
7,ACGGCCTC,-0.166 ± 0.071
8,GTTTACAA,0.0847 ± 0.0064
9,CTCATTAC,-0.144 ± 0.012
10,TCCGCCAA,-0.0166 ± 0.038
11,GGCATGCA,-0.086 ± 0.02
12,AACCCTAC,0.0576 ± 0.013
13,ATTATACG,-0.125 ± 0.048
14,ATGGACCC,-0.211 ± 0.011
15,GGCTCGTA,-0.191 ± 0.11
16,TCCTCTAA,-0.221 ± 0.03
17,TAGGGTGA,0.199 ± 0.025
18,CCAGACAA,-0.17 ± 0.077
19,TACTACGA,0.0382 ± 0.023
20,TAACCCGA,-0.165 ± 0.032
21,CTACCCTA,0.0602 ± 0.064
22,CCGAGTAA,-0.122 ± 0.051
23,CTGAAGAC,0.0286 ± 0.023
24,GACTGCAC,-0.181 ± 0.067
25,GGTCACAC,0.4613 ± 0.0012

row,Sequence,PBM E-score of 8-mer
1,ACGACTTA,0.0417 ± 0.048
2,CGGAGATA,0.06 ± 0.0079
3,AGGAGCTA,0.0281 ± 0.032
4,AGTCCAGA,-0.184 ± 0.081
5,ATCCCGTA,-0.149 ± 0.053
6,AAGGGATC,-0.151 ± 0.08
7,CAGCACCG,0.123 ± 0.063
8,ACAAATAC,-0.00747 ± 0.0026
9,ATCGGGAC,-0.265 ± 0.064
10,CGTCTCCA,-0.192 ± 0.0094
11,CGCAAATA,-0.00643 ± 0.048
12,CCCTCACC,0.192 ± 0.049
13,GATTTCAC,0.336 ± 0.048
14,GGGCGTCA,0.334 ± 0.043
15,GCCGCCAA,0.141 ± 0.022
16,ACGAAATC,-0.0591 ± 0.014
17,CAATCGCC,-0.0698 ± 0.068
18,AGCGATCG,0.0358 ± 0.054
19,ATCAGCAC,0.225 ± 0.029
20,AATTCAAT,-0.161 ± 0.076
21,GAACATGC,-0.122 ± 0.056
22,AGTCGAAC,-0.0828 ± 0.11
23,ACCCAATA,0.0186 ± 0.015
24,CAACACAA,0.141 ± 0.021
25,ATAACATG,0.0281 ± 0.035

row,Sequence,PBM E-score of 8-mer
1,AGCGCTGC,-0.0413 ± 0.027
2,AATGGGCT,-0.0829 ± 0.076
3,TGGGGTAA,-0.16 ± 0.057
4,GCGCGGCC,-0.0416 ± 0.038
5,ACGCCCTG,0.0916 ± 0.018
6,CATGCGCA,0.0565 ± 0.077
7,CCGACGCA,-0.0454 ± 0.012
8,AACCGGAA,-0.0726 ± 0.085
9,CCGCGTCG,-0.0318 ± 0.024
10,AAGAGGGG,-0.166 ± 0.076
11,GCTTTAAA,-0.0836 ± 0.039
12,GATAATAC,-0.0976 ± 0.014
13,ATACATAT,-0.0446 ± 0.0093
14,AATGTAAG,-0.0951 ± 0.06
15,ACGCAGGA,-0.169 ± 0.018
16,GCGCCCAC,0.122 ± 0.053
17,AGAGGGCA,-0.0954 ± 0.0035
18,ACGAAACT,0.116 ± 0.0068
19,CGCAGCGC,0.106 ± 0.075
